For series [1] the following is noted: rat, tissue homogenate.
For series [2] the following is noted: rat, tissue homogenate. The source holds these as a separate data set.

As for “1-Beta-D-arabinofuranosyladenine [Vidarabine]”, in series [1], the “T1/2 Intestinal homogenate” value worked out at 3 min. In addition, the “T1/2 Liver homogenate” value in series [2] turned out to be 15 min.

The values above are taken from article PMC2642980 (Bioorganic & medicinal chemistry letters, 2008).
